Legend:
[1] = target: T1, EGFR-Fc (UniProt P00533 partial chain, limits assumed); assay: BIAcore, biMab-EI immobilized, co-inject of antigens
T1 construct: It is named EGFR-Fc only in the methods paragraph and EGFR elsewhere; not shown: Fc part

[2] = target: T2, Human C1q (human, UniProt P02745; P02746; P02747); assay: ELISA, antibody coated, human C1q titrated
T2 construct: Human C1q was bought from Cell Sciences (catalog number CRC 162B)

[3] = target: T3, EGFR (epidermal growth factor receptor), immobilized in ELISA (UniProt P00533 partial chain, limits assumed); assay: ELISA, EGFR coated
T3 construct: Antigen coated on ELISA wells; also called EGF receptor
Method: The absorbance at 450 nm was measured using a microtiter plate reader.

Measured: binding result

Chain of Human C1q (P02745 23-245 limits assumed, chain 1 of 3): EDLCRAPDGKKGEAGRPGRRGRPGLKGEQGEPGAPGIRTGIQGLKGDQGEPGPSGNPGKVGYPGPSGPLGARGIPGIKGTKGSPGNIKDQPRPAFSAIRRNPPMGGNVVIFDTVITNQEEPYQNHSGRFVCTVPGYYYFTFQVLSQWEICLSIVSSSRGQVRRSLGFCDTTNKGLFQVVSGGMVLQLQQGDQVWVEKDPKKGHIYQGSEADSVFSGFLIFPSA
Chain of Human C1q (P02746 28-253 limits assumed, chain 2 of 3, further chain): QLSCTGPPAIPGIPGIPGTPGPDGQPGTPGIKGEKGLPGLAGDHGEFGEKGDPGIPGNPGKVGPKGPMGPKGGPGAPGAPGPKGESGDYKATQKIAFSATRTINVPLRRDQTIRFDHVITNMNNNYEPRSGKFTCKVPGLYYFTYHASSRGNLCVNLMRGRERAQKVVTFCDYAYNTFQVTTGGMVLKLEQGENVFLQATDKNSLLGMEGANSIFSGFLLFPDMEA
Chain of Human C1q (P02747 29-245 limits assumed, chain 3 of 3, further chain): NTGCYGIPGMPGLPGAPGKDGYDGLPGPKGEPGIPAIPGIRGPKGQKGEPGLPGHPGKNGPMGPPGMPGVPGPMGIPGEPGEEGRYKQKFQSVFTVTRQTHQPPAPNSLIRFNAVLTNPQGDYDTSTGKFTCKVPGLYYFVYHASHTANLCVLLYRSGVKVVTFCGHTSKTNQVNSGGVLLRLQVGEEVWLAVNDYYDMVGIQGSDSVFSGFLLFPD

B1: biMab-EI (PaniX/Dalo) (bispecific antibody)
heavy: QVQLQESGPGLVKPSETLSLTCTVSGGSVSSGDYYWTWIRQSPGKGLEWIGHIYYSGNTNYNPSLKSRLTISIDTSKTQFSLKLSSVTAADTAIYYCVRDRVTGAFDIWGQGTMVTVSSASTKGPSVFPLAPSSKSTSGGTAALGCLVKDYFPEPVTVSWNSGALTSGVHTFPAVLQSSGLYSLSSVVTVPSSSLGTQTYICNVNHKPSNTKVDKRVEPKSCGKTGGGGSGGGGSDIVMTQSPLSLPVTPGEPASISCRSSQSIVHSNGNTYLQWYLQKPGQSPQLLIYKVSNRLYGVPDRFSGSGSGTDFTLKISRVEAEDVGVYYCFQGSHVPWTFGCGTKVEIKGGGGSGGGGSGGGGSGGGGSQVQLQESGPGLVKPSETLSLTCTVSGYSITGGYLWNWIRQPPGKCLEWIGYISYDGTNNYKPSLKDRVTISRDTSKNQFSLKLSSVTAADTAVYYCARYGRVFFDYWGQGTLVTVSSGGGGSGGGGS[left out - human IgG1 Fc]
light: DIQMTQSPSSLSASVGDRVTITCQASQDISNYLNWYQQKPGKAPKLLIYDASNLETGVPSRFSGSGSGTDFTFTISSLQPEDIATYFCQHFDHLPLAFGGGTKVEIKRTVAAPSVFIFPPSDEQLKSGTASVVCLLNNFYPREAKVQWKVDNALQSGNSQESVTEQDSKDSTYSLSSTLTLSKADYEKHKVYACEVTHQGLSSPVTKSFNRGEC
notes: IgG1 Fc; also called anti-EGFR/IGF1R biMab
binds: all assays above

Reference: patent US20170114151A1 (AstraZeneca / MedImmune, published 2017)
